The values below come from ChEMBL document CHEMBL4888484, “Replenishing the malaria drug discovery pipeline: Screening and hit evaluation of the MMV Hit Generation Library 1 (HGL1) against asexual blood stage Plasmodium falciparum ,using a nano luciferase reporter read-out” (2022).

Each structure is given as a SMILES string. The whole screen tested about 150,000 compounds, of which about 540 (0.36%) showed an effect of 50% or more. This is one part of the list.

The subject of the experiment is Plasmodium falciparum. As to the kind of experiment: Primary screen in NF54 nanoGlo assay, in single point, at 2uM, 72h; a lower Z score goes with more inhibition. Format: functional, Erythrocyte. To be noted: timepoint 72 hour.
Take `CCn1ncc(Br)c1C(=O)Nc1cccnc1N(C)C`: the % Inhibition (in general, the change of the read-out against control, counted positive when it falls) was -4% and the Z score is 0.76.
In the same order, the values of `O=C(Nc1scnc1-c1ccccc1)N[C@H]1CCCn2ncnc21` are -4% and 0.46.
In the same order, the values of `COc1cc2c(cc1OC)CN(C(=O)CNC(=O)c1cccnc1)CC2` are 12% and -1.95.
In the same order, the values of `CO[C@H]1CCOC[C@@H]1NC(=O)c1ccnn1C(C)C` are 0% and -0.03.
Consider `CCN(CC)Cc1cc(C(=O)NCc2csc(C)n2)c(C)o1`, for which the “% Inhibition” value is recorded as -1% and the Z score is 0.16.
For `O=S(=O)(c1ccc2c(c1)OCCO2)N1CCN2CCCC[C@H]2C1`, the “% Inhibition” value is 12% and the Z score is on record as -1.14.
Consider `NC(=O)c1ccc(-c2ccc(C(=O)N[C@H]3CC[C@H](O)CC3)cc2)o1`, for which the “% Inhibition” value is given as 4% and the Z score is reported as -0.76.
Taken in the same sequence, the figures for `CNC(=O)CC(NC(=O)[C@H](C)NS(=O)(=O)c1ccc(Cl)cc1)c1ccccc1` (some centres not stated) were -4% and 0.6.
Taken in the same sequence, the figures for `CCN(Cc1nc2ccccc2c(=O)[nH]1)C(=O)[C@H]1NCC12CCCC2` were -1% and 0.12.
In the same order, the values of `O=C(Nc1ccc(N2CCC(Cc3ccccc3)CC2)cc1C(=O)O)c1ccc(F)cc1` are 30% and -4.31.
Regarding `Cc1cc(C(=O)N2CCCC2)c(C)n1-c1ccc(O)cc1`, the “% Inhibition” value is listed as -15% and the Z score worked out at 2.28.
In the case of `CCc1nc(CCNC(=O)Cc2sc(N)nc2C)no1`, the “% Inhibition” value is given as -22% and the Z score is listed as 2.33.
Consider `Cc1ccc(N(CCC(C)(C)O)C(C)C)cc1`, for which the “% Inhibition” value was -13% and the Z score came to 1.5.
Taken in the same sequence, the figures for `Cc1ccccc1C(=O)Nc1ccccc1-c1ccccc1NC(=O)c1ccccc1C` were 3% and -0.45.
Take `c1nc2c(c(N3CCOCC3)n1)CNCC2`: the “% Inhibition” value is listed as -6% and the Z score was 0.98.
Taken in the same sequence, the figures for `CC(C)c1nnc(CCC(=O)N2CC(C)N(C)CC2C)o1` (configuration not stated) were -7% and 0.65.
Taken in the same sequence, the figures for `COCC1(C(=O)OC(C)(C)C)CCCN1CC(O)COC(C)C` (configuration not stated) were 3% and -0.43.
Taken in the same sequence, the figures for `CN(C)c1nc(-c2cn[nH]c2)ncc1F` were -1% and 0.13.
For `NC(=O)NC(=O)COc1ccc(Br)cc1`, the “% Inhibition” value came out at 32% and the Z score is on record as -0.64.
In the same order, the values of `COc1cc(N2CCC[C@H](c3nc(C(C)C)no3)C2)nc(N)n1` are -2% and 0.28.
For `CN(C)C(=O)[C@@H]1CN(c2ccncc2F)CCO1`, the “% Inhibition” value is recorded as 4% and the Z score is listed as -0.76.
Taken in the same sequence, the figures for `CC(C)c1nc(CN(C)C(=O)Cc2c[nH]c(=O)[nH]c2=O)no1` were -13% and 2.57.
In the same order, the values of `CCNc1ncc(C(=O)N2CCC[C@H](c3nccn3CC3CC3)C2)cn1` are -25% and 2.63.
In the same order, the values of `CN(CCc1ccccn1)c1ccc(Cl)cn1` are 3% and -0.4.
For the compound `CCNC(=O)c1ccc(NC(=O)c2c[nH]c(C)n2)cc1`, the “% Inhibition” value amounted to 15% and the Z score was -1.91.
For `COCCN(Cc1cc(Cl)ccc1OS(C)(=O)=O)C(=O)C(C)C`, the “% Inhibition” value is listed as -7% and the Z score is on record as 1.09.
Turning to `O=C(CNC(=O)OCc1ccccc1)NC1CCN(c2cc3c(nn2)CCCC3)CC1`, the “% Inhibition” value is on record as -24% and the Z score stood at 4.13.
In the same order, the values of `Cn1nccc1CNC(=O)c1ccc(CN2CCCCC2=O)cc1` are -4% and 0.61.
Taken in the same sequence, the figures for `CC(C)CCC(=O)N[C@H]1CC(=O)N(Cc2cccc3ccccc23)C1` were -8% and 1.53.
In the same order, the values of `N#Cc1cnn2c(NC3CCCCCC3)c(-c3cccc(Cl)c3)[nH]c12` are -16% and 2.28.
Turning to `COC1(c2noc(-c3ccc4c(c3)ncn4C)n2)CCCC1`, the “% Inhibition” value is -9% and the Z score was 1.76.
In the same order, the values of `Cc1noc(C)c1C(C)(C)C(=O)N[C@@H](C)c1ccncc1F` are -11% and 0.94.
In the same order, the values of `CC[C@]1(C(N)=O)CCCN(C(=O)c2cc(C)n(CCCOC)c2C)C1` are -10% and 1.34.
In the same order, the values of `Oc1ccccc1/C=C/c1nc(-c2ccccc2O)n(-c2ccccc2)n1` are -8% and 0.88.
As for `CC(C)OCCS(=O)(=O)N1CC2CCCC2C1` (configuration not stated), the “% Inhibition” value is -8% and the Z score was determined as 1.21.
In the same order, the values of `O=C(OCc1ccccc1)N1CC[C@H](OCC2CC2)C1` are -6% and 0.87.
In the same order, the values of `O=C(NCc1cccnc1N1CCOCC1)NC1CCCC1` are -5% and 0.55.
In the same order, the values of `O=S(=O)(C[C@H]1CCCCO1)NCc1noc(-c2ccccc2)n1` are -3% and 0.51.
As for `O=C(Cn1cncn1)N1CCN(Cc2ccc3c(c2)OCO3)CC1`, the “% Inhibition” value amounted to 2% and the Z score was -0.16.
In the same order, the values of `Cc1cc(C(=O)NCC2CC(O)CN2Cc2ccccc2)n(C)n1` (configuration not stated) are -9% and 1.34.
In the same order, the values of `CC(O)CC1COCCN1C(=O)NC1CCCc2ccc(F)cc21` (configuration not stated) are -9% and 0.91.
In the case of `O=C(O)c1sccc1CN1CC[C@H](c2ccccc2)[C@H](CO)C1`, the “% Inhibition” value is -2% and the Z score came out at 0.34.
`COCCc1nc(-c2cccnc2)n(Cc2ccccc2C)n1`: the “% Inhibition” value is 1% and the Z score is reported as -0.26.
Taken in the same sequence, the figures for `COCCN1C(=O)CC(CC(=O)N2CC3CCC2C3)(c2ccccc2Cl)C1=O` (configuration not stated) were 10% and -1.26.
Take `Cc1ccc(CNC(=O)N(C)[C@H]2CCc3nn(CC4CC4)c(=O)n3CC2)cc1`: the “% Inhibition” value is recorded as -10% and the Z score is 1.59.
In the same order, the values of `CC[C@@H](C(=O)Nc1cc(C)ns1)N(C)C` are -5% and 0.53.
In the case of `CCN1CCN(C(=O)c2c(C)oc3ncn(CC(C)C)c(=O)c23)CC1`, the “% Inhibition” value is reported as -3% and the Z score was found to be 0.57.
Taken in the same sequence, the figures for `CCN(Cc1noc(C)n1)C(=O)c1ccc([C@@H]2CCCN2)s1` were -7% and 1.11.
In the same order, the values of `O=c1c2cc(-c3ccc4c(c3)OCO4)nn2ccn1Cc1c(F)cccc1Cl` are -8% and 1.07.
In the same order, the values of `O=C(c1nc2ccccc2s1)N1CCNC[C@H](O)C1` are -14% and 1.28.
As for `O=C(Nc1ccc(Cl)cc1O)c1cccn2c(Cc3ccccc3)nnc12`, the “% Inhibition” value is listed as -7% and the Z score was found to be 1.2.
In the same order, the values of `CCC(CC)C(=O)N1CCC(NS(=O)(=O)CC2(C)CC2)CC1` are -3% and 0.42.
In the same order, the values of `CN1CCC[C@H](C(=O)NCCN2Cc3cc(Cl)ccc3OCC2=O)C1` are -8% and 1.53.
Regarding `COCCn1c(C)cnc1CCNC(=O)Nc1ccc2c(c1)OCCO2`, the “% Inhibition” value is given as -2% and the Z score is 0.33.
Taken in the same sequence, the figures for `O=C(CCN1N=C(c2ccccc2)CCC1=O)NCc1ccccc1` were -16% and 2.61.
Taken in the same sequence, the figures for `CCCN(C)C(=O)COc1ccc(NC(C)=O)cn1` were -21% and 3.58.
